Test results: PubChem BioAssay
Inconclusive means that the source gave no clear call. Such entries were picked first, then a sample of the others. The source made the active and inactive calls.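 Rule for the calls, unless noted: active = thallium flux rate significantly above the same plate's solvent-only control wells, beyond their mean plus 3 SD; inconclusive = the two replicate wells gave conflicting results; inactive = the rest.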

assay: FluoZin2 fluorescence counter-screen of MLSMR hits on KCC2-expressing cells (AID 1714;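 active = thallium entry rate above the same plate's blocked-transporter control wells by more than 3 SD; inconclusive = the two repeat wells disagree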;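 note: raw slope of fluorescence over initial fluorescence between 10 and 20 s after thallium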); settings: HEK293-KCC2 + bumetanide/ouabain, at 10 µM, stronger effect = higher value
Outline: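 Test system: HEK cells expressing the K-Cl cotransporter KCC2 | Compound: One dose, 10 µM, 0.1% DMSO | Replication: Duplicates | Evaluation: Normalized thallium flux slope | Detection: FluoZin2-AM (0.5 µM) fluorescence, 480 nm ex/540 nm em, 1 Hz kinetic imaging | Incubation: Overnight culture 37 °C, dye loading 48 min | Reagent: Thallium stimulus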

| Structure (SMILES) | normalized thallium flux |
| --- | --- |
| O=C(Nc1nc(-c2ccccc2)cs1)c1ccccc1NS(=O)(=O)c1ccc(F)cc1 | inconclusive: 0.006 |
| CN(CC(=O)N1CC=C(c2ccccc2)CC1)S(=O)(=O)c1ccc2c(c1)c(=O)n(C)c(=O)n2C | inconclusive: 0.00741 |
| COc1ccc(CN(C(=O)c2ccc(-c3ccccc3)[nH]2)C(C(=O)NCC2CCCO2)c2ccc(C)o2)cc1 (stereo not given) | inactive: 0.00523 |
| CC1Cc2ccccc2N1C(=O)CSc1nnc2n1C(C)(C)Cc1ccccc1-2 (stereo not given) | inconclusive: 0.0054 |
| NNc1nc2sc3c(c2c(=O)n1Cc1ccccc1)CCC3 | active: 0.0169 |
| C(=N\Nc1nc2ccccc2s1)/c1ccccn1 | inconclusive: 0.0083 |
| Cc1nn2c([nH]c(=O)c3ccccc32)c1C=O | active: 0.01 |
| Cn1c(C(=O)NCCCN2CCc3ccccc3C2)cc2c(=O)n(C)c3ccccc3c21 | inactive: 0.00541 |
| CCCCN(C)CCC(=O)Nc1ccc2c(c1)CCC2 | inconclusive: 0.0055 |
| Cc1ccc(C(=O)N2CCCC2)cc1Br | inconclusive: 0.00834 |
| O=C1OC(c2cccs2)=N/C1=C\c1ccc(-c2ccccc2Cl)o1 | inactive: 0.00448 |
| Cc1ccc(/C(O)=C2/C(=O)C(=O)N(CCN3CCOCC3)C2c2ccccn2)cc1 (stereo not given) | inconclusive: 0.00822 |
| O=C(NC(=S)NNC(=O)c1ccccc1O)c1ccco1 | active: 0.0134 |
| Cc1ccc(S(=O)(=O)NC(=O)Nc2cc(C)ccc2F)cc1 | inconclusive: 0.00507 |
| CNS(=O)(=O)c1cccc2nsnc12 | inconclusive: 0.00708 |
| O=C(Nc1ccc2nc3n(c(=O)c2c1)CCCC3)c1cc([N+](=O)[O-])ccc1F | inactive: 0.00634 |
| N#C/C(=C/c1ccc(N2CCCCCC2)o1)c1ccc(F)cc1 | inconclusive: 0.00264 |
| N=C1C(c2nc3ccccc3s2)=C(O)CN1Cc1ccco1 | inconclusive: 0.00529 |
| O=C(Nc1cccnc1)c1ccc(COc2ccccc2Cl)o1 | inconclusive: 0.00542 |
| Cc1nn(Cc2ccccc2)c(C)c1NC(=O)c1noc2c1CCc1ccccc1-2 | inconclusive: 0.00713 |
| CC12CC(NC(=O)N1c1cccc(C(=O)NCc3ccccc3)c1)c1ccccc1O2 (stereo not given) | inconclusive: 0.00543 |
| O=C(NCCCn1ncc2ccccc21)c1cc(COc2c(F)cccc2F)on1 | inconclusive: 0.00519 |
| C=CCSc1n[nH]c2nc3c(c(=O)n12)C1(CCCC1)Cc1ccccc1-3 | inconclusive: 0.00701 |
| Cc1cnc(NC(=O)COc2cccc3c2OC(C)(C)C3)s1 | inactive: 0.00715 |
| COc1ccc(CCNc2oc(COc3ccccc3)nc2C#N)cc1 | inactive: 0.00471 |

assay: compound effects on native HEK Tl+ uptake – HEK cells, counterscreen 1, counter-screen for KCC2 modulator project, confirmation (AID 1716); settings: HEK293 parental cells, thallium flux FluoZin2, ouabain; at 10 µM; baseline-ratio fluorescence slope, 10–20 s after thallium

| Structure (SMILES) | thallium flux rate (normalised fluorescence) |
| --- | --- |
| COc1ccc(S(=O)(=O)N(CCc2ccccc2)CC(=O)O)cc1Cl | inactive: 0.00438 |
| Cc1noc(/C=C/c2ccco2)c1S(=O)(=O)N1CCC(C(=O)N2CCc3ccccc3C2)CC1 | inactive: 0.00719 |
| COc1ccc(Nc2cc(C)c3ccc(O)cc3n2)cc1 | inconclusive: 0.0083 |
| COCCNC(=O)CN(c1cc(C(F)(F)F)ccc1Cl)S(C)(=O)=O | inconclusive: 0.0084 |
| CCCCC(NC(C)=O)c1nc2ccccc2n1CCCC (stereo not given) | inconclusive: 0.00669 |
| C/C(N)=C(/C#N)C(=O)CSc1cc(C)c2cc(C)cc(C)c2n1 | inconclusive: 0.00869 |
| Cc1cc([N+](=O)[O-])cc(/C=N/n2c(C)nc3ccccc3c2=O)c1O | inactive: 0.00778 |
| Cc1nonc1NC(=O)CSc1ccc(-c2ccccc2)nn1 | inactive: 0.00663 |
| COc1ccc2nc(NNC(=O)C3COc4ccccc4O3)sc2c1 (stereo not given) | active: 0.0109 |
| O=C(CSc1ccc(-c2ccccc2)nn1)c1ccccc1 | inactive: 0.00856 |
| Cc1ccc(CCNC(=O)C2CCC(CNc3c(N4CCCC4)c(=O)c3=O)CC2)cc1 (stereo not given) | inconclusive: 0.00877 |
| CCCCCSc1nnc(-c2cc(Br)ccc2N)c(=O)[nH]1 | inconclusive: 0.00691 |
| CN1/C(=C/C(=O)c2nc(S(C)(=O)=O)ncc2Cl)C(C)(C)c2ccccc21 | inconclusive: 0.00665 |
| O=C(CCc1ccccc1)c1c(O)cc(O)cc1O | inactive: 0.00809 |
| COc1cc(-c2c(C#N)c(=O)[nH]c3c2c(C)nn3-c2ccccc2)ccc1O | inactive: 0.00668 |
| O=C(Nc1nc(-c2ccccc2)cs1)c1ccccc1NS(=O)(=O)c1ccc(F)cc1 | inconclusive: 0.00641 |
| CN(CC(=O)N1CC=C(c2ccccc2)CC1)S(=O)(=O)c1ccc2c(c1)c(=O)n(C)c(=O)n2C | inactive: 0.00813 |
| COc1ccc(CN(C(=O)c2ccc(-c3ccccc3)[nH]2)C(C(=O)NCC2CCCO2)c2ccc(C)o2)cc1 (stereo not given) | inactive: 0.00753 |
| CC1Cc2ccccc2N1C(=O)CSc1nnc2n1C(C)(C)Cc1ccccc1-2 (stereo not given) | inactive: 0.00733 |
| NNc1nc2sc3c(c2c(=O)n1Cc1ccccc1)CCC3 | inconclusive: 0.0061 |

| Structure (SMILES) | thallium flux rate (normalised fluorescence) |
| --- | --- |
| C(=N\Nc1nc2ccccc2s1)/c1ccccn1 | inconclusive: 0.00745 |
| Cc1nn2c([nH]c(=O)c3ccccc32)c1C=O | inconclusive: 0.0077 |
| Cn1c(C(=O)NCCCN2CCc3ccccc3C2)cc2c(=O)n(C)c3ccccc3c21 | inactive: 0.00778 |
| CCCCN(C)CCC(=O)Nc1ccc2c(c1)CCC2 | inactive: 0.00798 |
| Cc1ccc(C(=O)N2CCCC2)cc1Br | inactive: 0.00766 |
| O=C1OC(c2cccs2)=N/C1=C\c1ccc(-c2ccccc2Cl)o1 | active: 0.00489 |
| Cc1ccc(/C(O)=C2/C(=O)C(=O)N(CCN3CCOCC3)C2c2ccccn2)cc1 (stereo not given) | inconclusive: 0.00854 |
| O=C(NC(=S)NNC(=O)c1ccccc1O)c1ccco1 | inconclusive: 0.0057 |
| Cc1ccc(S(=O)(=O)NC(=O)Nc2cc(C)ccc2F)cc1 | inconclusive: 0.00852 |
| CNS(=O)(=O)c1cccc2nsnc12 | inactive: 0.008 |
| O=C(Nc1ccc2nc3n(c(=O)c2c1)CCCC3)c1cc([N+](=O)[O-])ccc1F | inconclusive: 0.00316 |
| N#C/C(=C/c1ccc(N2CCCCCC2)o1)c1ccc(F)cc1 | inconclusive: 0.00647 |
| N=C1C(c2nc3ccccc3s2)=C(O)CN1Cc1ccco1 | inactive: 0.00754 |
| O=C(Nc1cccnc1)c1ccc(COc2ccccc2Cl)o1 | inactive: 0.00768 |
| Cc1nn(Cc2ccccc2)c(C)c1NC(=O)c1noc2c1CCc1ccccc1-2 | inactive: 0.00782 |
| CC12CC(NC(=O)N1c1cccc(C(=O)NCc3ccccc3)c1)c1ccccc1O2 (stereo not given) | inactive: 0.00737 |
| O=C(NCCCn1ncc2ccccc21)c1cc(COc2c(F)cccc2F)on1 | inactive: 0.00681 |
| C=CCSc1n[nH]c2nc3c(c(=O)n12)C1(CCCC1)Cc1ccccc1-3 | inconclusive: 0.00675 |
| Cc1cnc(NC(=O)COc2cccc3c2OC(C)(C)C3)s1 | inactive: 0.00703 |
| COc1ccc(CCNc2oc(COc3ccccc3)nc2C#N)cc1 | inconclusive: 0.00633 |
